Test results taken from PMC9911399, “Two distinct binding modes provide the RNA-binding protein RbFox with extraordinary sequence specificity”.
Where a chain is given by its changes, count along the chain named. Some of the results follow.

B1: UGAGCAC (DNA:RNA)
RNA: GGGAGACCGGAAUUCAGAUUGUCCUGAGCACUUAAAUCCCGUCGUAGCCACCA
DNA 1: CAATCTGAATTCCGGTCTCCC
DNA 2: TGGTGGCTACGACGGGATT
B2: AACGUCC (DNA:RNA)
RNA: B1 RNA with U25A, G26A, A27C, C29U, A30C
DNA 1: CAATCTGAATTCCGGTCTCCC
DNA 2: TGGTGGCTACGACGGGATT
B3: CUGACUU (DNA:RNA)
RNA: B1 RNA with U25C, G26U, A27G, G28A, A30U, C31U
DNA 1: CAATCTGAATTCCGGTCTCCC
DNA 2: TGGTGGCTACGACGGGATT
B4: ACGGGCG (DNA:RNA)
RNA: B1 RNA with U25A, G26C, A27G, C29G, A30C, C31G
DNA 1: CAATCTGAATTCCGGTCTCCC
DNA 2: TGGTGGCTACGACGGGATT
B5: AGUAAGC (DNA:RNA)
RNA: B1 RNA with U25A, A27U, G28A, C29A, A30G
DNA 1: CAATCTGAATTCCGGTCTCCC
DNA 2: TGGTGGCTACGACGGGATT
B6: UGUCGGG (DNA:RNA)
RNA: B1 RNA with A27U, G28C, C29G, A30G, C31G
DNA 1: CAATCTGAATTCCGGTCTCCC
DNA 2: TGGTGGCTACGACGGGATT
B7: AAAAGUG (DNA:RNA)
RNA: B1 RNA with U25A, G26A, G28A, C29G, A30U, C31G
DNA 1: CAATCTGAATTCCGGTCTCCC
DNA 2: TGGTGGCTACGACGGGATT
B8: AUCAAGA (DNA:RNA)
RNA: GGGAGACCGGAAUUCAGAUUGUCCAUCAAGAUUAAAUCCCGUCGUAGCCACCA
DNA 1: CAATCTGAATTCCGGTCTCCC
DNA 2: TGGTGGCTACGACGGGATT
B9: GCAUCUC (DNA:RNA)
RNA: B1 RNA with U25G, G26C, G28U, A30U
DNA 1: CAATCTGAATTCCGGTCTCCC
DNA 2: TGGTGGCTACGACGGGATT
B10: GUCUGGU (DNA:RNA)
RNA: B8 RNA with A25G, A28U, A29G, A31U
DNA 1: CAATCTGAATTCCGGTCTCCC
DNA 2: TGGTGGCTACGACGGGATT
B11: ACCGCAG (DNA:RNA)
RNA: B1 RNA with U25A, G26C, A27C, C31G
DNA 1: CAATCTGAATTCCGGTCTCCC
DNA 2: TGGTGGCTACGACGGGATT
B12: UGUUGGU (DNA:RNA)
RNA: B1 RNA with A27U, G28U, C29G, A30G, C31U
DNA 1: CAATCTGAATTCCGGTCTCCC
DNA 2: TGGTGGCTACGACGGGATT
B13: GUGUCCC (DNA:RNA)
RNA: B1 RNA with U25G, G26U, A27G, G28U, A30C
DNA 1: CAATCTGAATTCCGGTCTCCC
DNA 2: TGGTGGCTACGACGGGATT
B14: UCGCAAC (DNA:RNA)
RNA: B1 RNA with G26C, A27G, G28C, C29A
DNA 1: CAATCTGAATTCCGGTCTCCC
DNA 2: TGGTGGCTACGACGGGATT
B15: CCGUCGU (DNA:RNA)
RNA: B8 RNA with A25C, U26C, C27G, A28U, A29C, A31U
DNA 1: CAATCTGAATTCCGGTCTCCC
DNA 2: TGGTGGCTACGACGGGATT
B16: UUCGUUG (DNA:RNA)
RNA: B8 RNA with A25U, A28G, A29U, G30U, A31G
DNA 1: CAATCTGAATTCCGGTCTCCC
DNA 2: TGGTGGCTACGACGGGATT
B17: UGCUGAC (DNA:RNA)
RNA: B1 RNA with A27C, G28U, C29G
DNA 1: CAATCTGAATTCCGGTCTCCC
DNA 2: TGGTGGCTACGACGGGATT
B18: ACCGAUU (DNA:RNA)
RNA: B8 RNA with U26C, A28G, G30U, A31U
DNA 1: CAATCTGAATTCCGGTCTCCC
DNA 2: TGGTGGCTACGACGGGATT
B19: CACUGUC (DNA:RNA)
RNA: B8 RNA with A25C, U26A, A28U, A29G, G30U, A31C
DNA 1: CAATCTGAATTCCGGTCTCCC
DNA 2: TGGTGGCTACGACGGGATT
B20: CUACAGG (DNA:RNA)
RNA: B8 RNA with A25C, C27A, A28C, A31G
DNA 1: CAATCTGAATTCCGGTCTCCC
DNA 2: TGGTGGCTACGACGGGATT
B21: AAGGGCC (DNA:RNA)
RNA: B1 RNA with U25A, G26A, A27G, C29G, A30C
DNA 1: CAATCTGAATTCCGGTCTCCC
DNA 2: TGGTGGCTACGACGGGATT
B22: ACUGGUC (DNA:RNA)
RNA: B1 RNA with U25A, G26C, A27U, C29G, A30U
DNA 1: CAATCTGAATTCCGGTCTCCC
DNA 2: TGGTGGCTACGACGGGATT
B23: GCGCAAA (DNA:RNA)
RNA: B8 RNA with A25G, U26C, C27G, A28C, G30A
DNA 1: CAATCTGAATTCCGGTCTCCC
DNA 2: TGGTGGCTACGACGGGATT
B24: GAGCAGA (DNA:RNA)
RNA: B8 RNA with A25G, U26A, C27G, A28C
DNA 1: CAATCTGAATTCCGGTCTCCC
DNA 2: TGGTGGCTACGACGGGATT
B25: CAAGGGA (DNA:RNA)
RNA: B8 RNA with A25C, U26A, C27A, A28G, A29G
DNA 1: CAATCTGAATTCCGGTCTCCC
DNA 2: TGGTGGCTACGACGGGATT
B26: GAACGUA (DNA:RNA)
RNA: B8 RNA with A25G, U26A, C27A, A28C, A29G, G30U
DNA 1: CAATCTGAATTCCGGTCTCCC
DNA 2: TGGTGGCTACGACGGGATT
B27: ACGCCUA (DNA:RNA)
RNA: B8 RNA with U26C, C27G, A28C, A29C, G30U
DNA 1: CAATCTGAATTCCGGTCTCCC
DNA 2: TGGTGGCTACGACGGGATT
B28: AUACUCA (DNA:RNA)
RNA: B8 RNA with C27A, A28C, A29U, G30C
DNA 1: CAATCTGAATTCCGGTCTCCC
DNA 2: TGGTGGCTACGACGGGATT
B29: GUGUGCC (DNA:RNA)
RNA: B8 RNA with A25G, C27G, A28U, A29G, G30C, A31C
DNA 1: CAATCTGAATTCCGGTCTCCC
DNA 2: TGGTGGCTACGACGGGATT
B30: CAAGAAU (DNA:RNA)
RNA: B1 RNA with U25C, G26A, C29A, C31U
DNA 1: CAATCTGAATTCCGGTCTCCC
DNA 2: TGGTGGCTACGACGGGATT
B31: CAAUGGG (DNA:RNA)
RNA: B8 RNA with A25C, U26A, C27A, A28U, A29G, A31G
DNA 1: CAATCTGAATTCCGGTCTCCC
DNA 2: TGGTGGCTACGACGGGATT

target: T1, RBFOX1 RRM RbFoxmut (Fox-RRM*) (Homo sapiens, UniProt Q9NWB1 109-208, R118D;E147R;N151S;E152T); experiment: EMSA; HiTS-Eq, 1 nM pool, 10 min; buffer printed only for the single-RNA assays: 10 mM Tris pH 7.5, 150 mM NaCl, 3.4 mM EDTA, 0.001% NP-40, 30 C; conditions: tags: His6 N-terminal (pET28a); label: 5' 32P
T1 sequence: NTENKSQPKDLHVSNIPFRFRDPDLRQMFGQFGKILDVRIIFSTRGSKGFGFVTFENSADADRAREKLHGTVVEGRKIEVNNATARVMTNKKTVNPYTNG
Summary of the method: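 A pool of RNA with 7 randomized nucleotides, 5′-radiolabelled and with DNA-annealed flanks, was equilibrated at 1 nM for 10 min in 50 µL with purified RbFox RRM, wild type or mutant, across increasing protein concentrations. Free RNA was separated by 8% native PAGE, excised, reverse-transcribed, barcoded by PCR and sequenced. Relative association constants were obtained from read-count changes of each RNA species versus the control reaction and normalised to the cognate motif.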

Row | Binder | binding signal
1 | B1 | 0.093 KA relative to UGCAUGU
2 | B2 | 0.0667 KA relative to UGCAUGU
3 | B3 | 0.0682 KA relative to UGCAUGU
4 | B4 | 0.114 KA relative to UGCAUGU
5 | B5 | 0.0885 KA relative to UGCAUGU
6 | B6 | 0.077 KA relative to UGCAUGU
7 | B7 | 0.126 KA relative to UGCAUGU
8 | B8 | 0.0663 KA relative to UGCAUGU
9 | B9 | 0.135 KA relative to UGCAUGU
10 | B10 | 0.192 KA relative to UGCAUGU
11 | B11 | 0.0948 KA relative to UGCAUGU
12 | B12 | 0.148 KA relative to UGCAUGU
13 | B13 | 0.101 KA relative to UGCAUGU
14 | B14 | 0.0571 KA relative to UGCAUGU
15 | B15 | 0.107 KA relative to UGCAUGU
16 | B16 | 0.146 KA relative to UGCAUGU

Row | Binder | binding signal
17 | B17 | 0.146 KA relative to UGCAUGU
18 | B18 | 0.0545 KA relative to UGCAUGU
19 | B19 | 0.147 KA relative to UGCAUGU
20 | B20 | 0.0537 KA relative to UGCAUGU
21 | B21 | 0.148 KA relative to UGCAUGU
22 | B22 | 0.155 KA relative to UGCAUGU
23 | B23 | 0.0886 KA relative to UGCAUGU
24 | B24 | 0.124 KA relative to UGCAUGU
25 | B25 | 0.0649 KA relative to UGCAUGU
26 | B26 | 0.334 KA relative to UGCAUGU
27 | B27 | 0.0873 KA relative to UGCAUGU
28 | B28 | 0.109 KA relative to UGCAUGU
29 | B29 | 0.22 KA relative to UGCAUGU
30 | B30 | 0.078 KA relative to UGCAUGU
31 | B31 | 0.0555 KA relative to UGCAUGU
